From PubChem BioAssay AID360 (National Center for Advancing Translational Sciences (NCATS), 2006)
The campaign covered roughly 48,000 compounds. About 550 (1.1%) were called active. Roughly 4% stayed inconclusive and do not appear here. Rule as the data show it: active = potency below about 15 µM; inconclusive = mostly about 16 µM to 33 µM; inactive = weaker than that. Some of the results follow.

Each molecule was assayed against Lysosomal acid glucosylceramidase (Homo sapiens) (UniProt P04062) (assay: Glucocerebrosidase). Conditions: purified enzyme, resorufin glucoside fluorescence (screen aimed at inhibitors), 20 min.
Outline: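 Compounds titrated against 0.2 nM normal enzyme, 30 uM resorufin beta-D-glucopyranoside substrate, citrate/phosphate buffer with taurocholate and tween-20, pH 5.9. Reaction ran 20 min at room temperature; fluorescence (Ex 548/Em 600) gave AC50.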
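Also: the screen sought inhibitors.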
Potency is read from the fitted curve at half-maximal effect.

Sequence of UniProt P04062 (P04062 whole entry, looked up): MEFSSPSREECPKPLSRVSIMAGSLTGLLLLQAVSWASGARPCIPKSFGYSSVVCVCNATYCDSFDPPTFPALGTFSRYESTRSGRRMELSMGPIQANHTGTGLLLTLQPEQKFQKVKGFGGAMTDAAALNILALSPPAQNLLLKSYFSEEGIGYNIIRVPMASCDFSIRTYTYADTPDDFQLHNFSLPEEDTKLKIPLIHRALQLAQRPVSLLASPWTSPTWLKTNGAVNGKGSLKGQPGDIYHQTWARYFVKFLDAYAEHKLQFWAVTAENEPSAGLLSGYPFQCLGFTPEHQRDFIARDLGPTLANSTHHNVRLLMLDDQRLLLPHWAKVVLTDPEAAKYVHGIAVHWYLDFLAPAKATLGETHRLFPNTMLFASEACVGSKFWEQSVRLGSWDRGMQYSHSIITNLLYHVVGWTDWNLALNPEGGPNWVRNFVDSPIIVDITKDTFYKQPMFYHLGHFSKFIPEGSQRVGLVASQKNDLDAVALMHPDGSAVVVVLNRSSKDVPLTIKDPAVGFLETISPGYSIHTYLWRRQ

Potency, inactive:
C/C(Cl)=C\CNC(C)c1ccccc1 (stereo not drawn) > 76.9 µM
c1ccc(CSc2nnnn2-c2ccc3c(c2)OCCO3)nc1 > 76.9 µM
CCCCOC(=O)n1ccc(C(=O)Nc2ccccc2OC)n1 > 76.9 µM
O=c1[nH]c(N2CCc3ccccc32)nc2c1CCCC2 > 76.9 µM
CCC(c1nnnn1CS(=O)(=O)c1ccc(C)cc1)N1CCN(c2nc3ccccc3s2)CC1 (stereo not drawn) > 76.9 µM
CCCC(=O)OCCn1c(Br)nc2c1c(=O)[nH]c(=O)n2C > 76.9 µM
COc1cc(NC(=O)c2ccco2)c(OC)cc1NC(=O)CCC(=O)Nc1cccc(C)c1C > 76.9 µM
CC(CP(=O)(O)O)NC(=O)Cc1ccccc1 (stereo not drawn) > 76.9 µM
CC(C)CC(=O)NC1(C(F)(F)F)C(=O)Nc2c1c(=O)[nH]c(=O)n2Cc1ccco1 (stereo not drawn) > 76.9 µM
O=C(O)CCCC(=O)Nc1ccc(N2CCCC2)cc1 > 76.9 µM
O=c1c2ccccc2nc(SCc2cn3ccsc3n2)n1-c1ccc(F)cc1 > 76.9 µM
CCOC(=O)C1=C(C)N=C2SC(CC)C(=O)N2C1c1ccc(OC(C)=O)c(OCC)c1 (stereo not drawn) > 76.9 µM
COCCNC(=S)c1ccc(OC)cc1 > 76.9 µM
COc1ccc(CCNc2nc(C)nc3c2oc2ccccc23)cc1OC > 76.9 µM
CCN1C(=O)C(C(=O)NC(C)c2ccccc2)C2CC1(C)Oc1ccccc12 (stereo not drawn) > 76.9 µM
COc1ccc2c(c1)[nH]c1c(=O)n(CCN3CCCC3)cnc12 > 76.9 µM
Cn1c(=O)c2cn3ncccc3c2n(C)c1=O > 76.9 µM
O=C(NCc1ccc(F)cc1)c1noc2c1CCCCC2 > 76.9 µM
CCCC(C)(C)NC(=O)CCCCC(=O)NC(C)(C)CCC > 76.9 µM
COc1ccccc1NC(=O)CN1C(=O)C(C)Oc2ccccc21 (stereo not drawn) > 76.9 µM
CCn1c(SCC(=O)N2CCN(c3ccccc3)CC2)nnc1-c1cc2cc(Cl)ccc2o1 > 76.9 µM
Cc1nc(C)n(CC(O)COc2ccc3c(c2)CCC3)n1 (stereo not drawn) > 76.9 µM
c1ccc(CNc2ncnc3c2ncn3C2CCCCO2)cc1 (stereo not drawn) > 76.9 µM
Cc1nn(-c2cccc(Cl)c2)c2c1C(c1cccnc1)C(C#N)=C(N)O2 (stereo not drawn) > 76.9 µM
CNC(=O)CSc1nnc(CCc2ccccc2)n1-c1ccccc1 > 76.9 µM
CC(C)C(=O)Nc1cccc(NC(=O)c2cccnc2)c1 > 76.9 µM
Cc1onc(-c2ccccc2)c1C(=O)Nc1cc(C(F)(F)F)ccc1N1CCOCC1 > 76.9 µM
CCCCNC(=O)CN1CCC2(O)CCCCC2C1c1ccccc1OC (stereo not drawn) > 76.9 µM
O=c1[nH]c2ccccc2c(=O)n1Cc1ccco1 > 76.9 µM
O=C(NCc1ccco1)C1CC(=O)N(CCc2ccccc2)C1 (stereo not drawn) > 76.9 µM
O=C(COc1ccc(Cl)cc1)Nc1nc(-c2cccs2)cs1 > 76.9 µM
Cc1c(C(=O)N2CC(C)OC(C)C2)sc2nc(-c3ccccc3)cn12 (stereo not drawn) > 76.9 µM
CCCCC(=O)Nc1cc2nn(-c3ccc(OC)cc3)nc2cc1C > 76.9 µM
Cc1ccc(-n2ncc3c(=O)n(CC(=O)NC4CCCC4)cnc32)cc1C > 76.9 µM
COC(=O)c1c(C)n(-c2ccccc2)c2ccc(O)cc12 > 76.9 µM
COc1ccccc1N1CCN(C(=O)C(C)N(c2ccc(C)c(C)c2)S(C)(=O)=O)CC1 (stereo not drawn) > 76.9 µM
COC(=O)c1ccccc1NC(=O)C1CCCC1 > 76.9 µM
COc1cc(NC(=O)CN(c2ccc(C)cc2)S(=O)(=O)c2c(C)n[nH]c2C)cc(OC)c1 > 76.9 µM
O=C(CCCCC(=O)NCc1cccs1)NCc1cccs1 > 76.9 µM
O=C1c2ccccc2C(=O)N1CCCn1c(=O)oc2ccccc21 > 76.9 µM
COC(=O)CC1C(=O)NC2CCCCC2N1C(=O)c1ccccc1 (stereo not drawn) > 76.9 µM
N#CC1=C(N)Oc2n[nH]c(-c3ccc(F)cc3)c2C1c1cccnc1 (stereo not drawn) > 76.9 µM
O=S(=O)(c1cccs1)N1CN(Cc2cccs2)c2nc3ccccc3nc21 > 76.9 µM
COc1cccc(NC(=O)C2CCN(c3ncccn3)CC2)c1 > 76.9 µM
CCCCOC(=O)c1ccc(NC(=O)c2cnccn2)cc1 > 76.9 µM
COc1ccc(C(O)c2nccn2Cc2ccccc2)cc1 (stereo not drawn) > 76.9 µM
O=C(CCC1CCCCC1=O)c1ccccc1 (stereo not drawn) > 76.9 µM
CCn1cc(C(=O)O)c(=O)c2cc(OC)ccc21 > 76.9 µM
CC(=NCc1ccco1)C1=C(O)c2ccccc2C1=O > 76.9 µM
COc1ccc(Nc2ncnc3c2cnn3Cc2ccccc2)cc1OC > 76.9 µM
COc1ccccc1N1CCN(C(CNS(=O)(=O)c2ccc(C)cc2)c2cccnc2)CC1 (stereo not drawn) > 76.9 µM
CCOc1ccc2nc(SCc3ccc(C(=O)OC)o3)[nH]c2c1 > 76.9 µM
COC(=O)CSc1nc2sc3c(c2c(=O)n1-c1ccccc1)CCN(C)C3 > 76.9 µM
CCOC(=O)C1CCCN(c2nc3ccccc3nc2C(C#N)C(=O)NCc2ccccc2)C1 (stereo not drawn) > 76.9 µM
Cc1c(Cl)cnc(NC(=O)COC(=O)C(NC(=O)c2ccco2)C(C)C)c1Cl (stereo not drawn) > 76.9 µM
Cc1ccc(C)n1-c1ccc(-c2nnc3n2CCCCC3)s1 > 76.9 µM
CNC(=O)CSc1nnc(-c2cccnc2)n1CCc1ccccc1 > 76.9 µM
c1ccc2sc(NC3=NCN(Cc4ccc5c(c4)OCO5)CN3)nc2c1 > 76.9 µM
COc1cccc(-n2nnc3c(=O)n(Cc4ccc(C)cc4)cnc32)c1 > 76.9 µM
CCn1c(SCC(=O)Nc2ccc3c(c2)OCCO3)nnc1-c1ccccn1 > 76.9 µM
O=C(NCCCN1CCOCC1)C(C(=O)c1ccccc1)n1ccccc1=O (stereo not drawn) > 76.9 µM
CCOC(=O)CSc1nnc(C2CCCCC2)n1C > 76.9 µM
COc1ccc(C(=O)Nc2ccccc2C(=O)NCc2ccco2)cc1OC > 76.9 µM
CCOC(=O)Cn1nc(-c2ccccc2)ccc1=O > 76.9 µM
Fc1ccc2nc(Nc3nc4c(s3)CCCC4)sc2c1 > 76.9 µM
CCOC(=O)C1CCCN(C(=O)c2cc3c(=O)n4cccc(C)c4nc3n2C)C1 (stereo not drawn) > 76.9 µM
Nn1c(Cc2cccc3ccccc23)nnc1SCC(=O)NC1CCS(=O)(=O)C1 (stereo not drawn) > 76.9 µM
O=C(NCCc1nc2ccccc2[nH]1)c1ccco1 > 76.9 µM
N#Cc1c(N)nc2c(c1-c1ccncc1)CCCCC2 > 76.9 µM
COc1ccc(Cn2nnnc2C(c2ccccn2)N2CCN(c3cc(Cl)ccc3C)CC2)cc1 (stereo not drawn) > 76.9 µM
Cc1nc2ccc(NC(=O)NCc3ccco3)cc2s1 > 76.9 µM
Cc1ccc(SCCC(=O)N2CCCC2)cc1 > 76.9 µM
O=S(=O)(c1ccc(S(=O)(=O)n2cnc3ccccc32)cc1)N1CCCCCC1 > 76.9 µM
Cc1cccc(CSc2nnc(-c3ccco3)n2C)c1 > 76.9 µM
Cc1cccc(C)c1NC(=O)N1C2CCCC1CC(NC(=O)C(C)(C)C)C2 (stereo not drawn) > 76.9 µM
COc1cccc(OCC(=O)Nc2ccccc2NC(C)=O)c1 > 76.9 µM
CCn1cnc2sc(C(=O)Nc3ccc4c(c3)OCO4)c(C)c2c1=O > 76.9 µM
Oc1ccccc1-c1nnc(SCCN2CCOCC2)n1Cc1ccccc1
COc1ccc(CCCc2nnc(SCC(=O)Nc3nc(C)cs3)n2C)cc1C > 76.9 µM
Cc1nc2cccc(C(=O)NC3CCCCC3)c2o1 > 76.9 µM
Cc1n[nH]c(C)c1S(=O)(=O)N1CCOCC1 > 76.9 µM
Cc1cccc(-n2c(Cc3ccccc3)nnc2SCC(=O)N2CCOCC2)c1 > 76.9 µM
O=C(Nc1ccc(Br)cc1F)c1sccc1-n1cccc1 > 76.9 µM
CCOC(=O)CCCn1nc(C)n2c(cc3sccc32)c1=O > 76.9 µM
c1ccc(-n2ncc3c(NCc4ccco4)ncnc32)cc1 > 76.9 µM
O=C(c1cnc2sccn2c1=O)N1CCc2ccccc2C1 > 76.9 µM
CN1CCN(CCNC(=O)Nc2ccccc2C(F)(F)F)CC1 > 76.9 µM
COc1ccc(S(=O)(=O)NC2CCCC2)cc1Br > 76.9 µM
CCNc1ccc(C(=O)OCC)cc1NC(=O)c1cccc(N(C)C)c1 > 76.9 µM
O=C(CCc1nc(-c2ccccc2)no1)NCC1CCCO1 (stereo not drawn) > 76.9 µM
Cc1cccc(C)c1OCC(=O)NCc1nnc(SCC(=O)NC2CCCCC2)n1C > 76.9 µM
CC(=O)c1ccccc1OCC(O)CN1CCN(C(c2ccccc2)c2ccccc2)CC1 (stereo not drawn) > 76.9 µM
COc1cc(CNc2ccc3[nH]c(=O)[nH]c3c2)cc(Cl)c1OCC(=O)NC(C)(C)C > 76.9 µM
